Reference: paper PMC4336329 (PLoS ONE, 2015)
Screen size: about 310,000 compounds; about 14,000 (4.5%) showed an effect of 50% or more. The effect is printed as a negative number. This is one part of the list.

The compounds below were run against human ether-à-go-go-related gene (hERG) potassium channel (human, UniProt Q12809) (assay: primary screen, population patch clamp on CHO cells stably expressing hERG).
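Note: peak tail current of the secondary pulse compared with the same well before compound.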

Chain of human ether-à-go-go-related gene (hERG) potassium channel (Q12809 whole entry, looked up): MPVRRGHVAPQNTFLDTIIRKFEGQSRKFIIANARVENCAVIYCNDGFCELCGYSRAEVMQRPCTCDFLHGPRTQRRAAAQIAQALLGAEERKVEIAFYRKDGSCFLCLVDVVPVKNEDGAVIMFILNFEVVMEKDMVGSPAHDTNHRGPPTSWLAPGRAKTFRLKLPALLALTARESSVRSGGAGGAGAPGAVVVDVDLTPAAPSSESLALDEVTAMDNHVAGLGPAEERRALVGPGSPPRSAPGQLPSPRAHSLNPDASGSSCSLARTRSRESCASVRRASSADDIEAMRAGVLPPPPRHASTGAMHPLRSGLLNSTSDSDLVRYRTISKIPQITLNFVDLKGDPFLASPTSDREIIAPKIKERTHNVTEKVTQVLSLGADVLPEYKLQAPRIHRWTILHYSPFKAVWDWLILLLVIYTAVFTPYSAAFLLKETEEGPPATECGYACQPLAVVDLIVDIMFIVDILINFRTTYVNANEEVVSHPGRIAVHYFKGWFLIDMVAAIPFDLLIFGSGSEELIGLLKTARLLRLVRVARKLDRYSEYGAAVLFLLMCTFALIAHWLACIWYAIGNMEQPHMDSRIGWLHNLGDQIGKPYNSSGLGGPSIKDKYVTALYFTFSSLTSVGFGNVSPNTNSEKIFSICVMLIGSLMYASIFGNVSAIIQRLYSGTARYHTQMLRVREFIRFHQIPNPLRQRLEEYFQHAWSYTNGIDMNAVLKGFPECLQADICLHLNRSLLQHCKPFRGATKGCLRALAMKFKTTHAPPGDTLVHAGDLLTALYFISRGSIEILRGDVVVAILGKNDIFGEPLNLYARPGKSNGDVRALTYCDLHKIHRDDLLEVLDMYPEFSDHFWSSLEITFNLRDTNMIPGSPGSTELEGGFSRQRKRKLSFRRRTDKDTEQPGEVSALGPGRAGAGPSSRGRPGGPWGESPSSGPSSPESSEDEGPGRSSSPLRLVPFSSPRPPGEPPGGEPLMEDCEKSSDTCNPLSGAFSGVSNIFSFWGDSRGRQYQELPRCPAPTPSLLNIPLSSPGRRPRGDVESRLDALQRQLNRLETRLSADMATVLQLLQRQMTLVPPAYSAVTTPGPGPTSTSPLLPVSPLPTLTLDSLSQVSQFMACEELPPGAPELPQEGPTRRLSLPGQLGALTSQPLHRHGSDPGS

| Structure (SMILES) | hERG current change (%, negative = inhibition) at 10uM [%] |
| --- | --- |
| CC1(c2ccccc2)NC(=O)N(CC(=O)Nc2ccccc2C(=O)N2CCCCC2)C1=O (stereo not drawn) | 19.7 |
| COc1ccccc1OCCC(=O)OCC(=O)c1[nH]c(C)c(C(C)=O)c1C | -8.55 |
| COc1ccc(CN2CCC(n3nccc3NC(=O)C3CC3)CC2)cc1O | -58.8 |
| O=S(=O)(NCCSc1ccccc1)c1cccs1 | -13.9 |
| CC(C)Oc1ccccc1OCCCOc1cccc2cccnc12 | -32.7 |
| CC(=O)Nc1cccc(NC(=O)CSc2nccn2Cc2ccccc2)c1 | 9.95 |
| O=C(COc1ccc(F)cc1Br)NCc1ccccn1 | -1.47 |
| CCOC(=O)C1=C(N)OC2=C(C(=O)CC(C)(C)C2)C1c1ccc(C)s1 (stereo not drawn) | -42.3 |
| COc1cccc(OC)c1C(=O)NC(=S)NCc1ccccc1 | 16.6 |
| O=C(Nc1cccc(S(=O)(=O)NC2=NCCC2)c1)c1ccc(=O)[nH]c1 | 10.7 |
| Cc1ccc(C(=O)N/C(=C\c2ccco2)C(=O)NCCc2c[nH]c3ccccc23)cc1 | -39.4 |
| Cc1cccc(NC(=O)c2ccccc2C(=O)Nc2cccc(C)c2)c1 | -5.94 |
| CC1=C([N+](=O)[O-])C(c2ccc3c(c2)OCO3)N(C)C(=O)N1C (stereo not drawn) | -0.318 |
| O=Cc1ccnc(-c2ccc(OC(=O)c3ccco3)cc2)n1 | 7.26 |
| COc1ccc(N(CC(=O)Nc2ccc(Cl)cc2)S(=O)(=O)c2c(C)n[nH]c2C)cc1 | -20.4 |
| O=C(O)CCNS(=O)(=O)c1ccccc1C(F)(F)F | 9.99 |
| C=CCCC(=O)NC1CCCc2c1cnn2-c1ccccc1F (stereo not drawn) | -2.92 |
| O=C(O)c1cccc(S(=O)(=O)NCc2cccs2)c1 | 4.57 |
| O=C(Oc1ccc2ccccc2c1Cl)N1CCCCCC1 | 18.9 |
| COC1=C(Nc2ccccc2OC)C(=O)c2ccccc2C1=O | 0.0125 |
| COc1ccc(C(NC(=O)CC(C)C)NC(=O)CC(C)C)cc1OC | -4.3 |
| COc1ccc(C(=O)Cn2nnc(-c3cccs3)n2)cc1 | -10.9 |
| O=C(Nc1cccc(-c2csc(Nc3cccc(C(F)(F)F)c3)n2)c1)c1ccccc1 | 0.347 |
| Cc1cccc(C(=O)N[C@H](C(=O)Nc2ccc(C)c(S(=O)(=O)N(C)C)c2)C(C)C)c1 | 44.2 |
